# Reference: PubChem BioAssay (Tox21)
# Values joined by “and” are separate entries in the source; they are usually repeats but may differ in a detail not shown here. Identical values can stand only once. The inconclusive results got no clear call from the source; some entries with a clear call stand among them for comparison. For part of these data: Potencies beside an inconclusive call are fits to weak or partial responses and may not hold up. Active and inactive are the calls of the source. Unless noted, calls follow the shape of the dose curve; as a rule, active = well fitted curve in the direction sought with a large enough effect in the repeat runs; inconclusive = weak or mixed curves; inactive = no such curve, though single readings can be large; an effect the other way counts as inactive or inconclusive.
# What was measured:
# [1] = qHTS assay for small molecule agonists of the p53 signaling pathway - cell viability (AID 651633; calls by dose curve; also: potency is read from the fitted curve at half-maximal effect; nearly all actives have a fitted effect of over 30% in size)
# In short: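 Viability counter-read: CellTiter-Glo luminescence (30 min, room temperature) in the same p53RE-bla plates. These plates had been exposed to compounds for 16 h at 37 C.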
# [2] = qHTS assay for small molecules that induce genotoxicity in human embryonic kidney cells expressing luciferase-tagged ATAD5 (AID 651632); also: nearly all actives have a fitted effect of over 15% in size; also: potency is read from the fitted curve at half-maximal effect; as to activation: % is scaled to controls: 0 for no effect and ±100 for the full control effect
# In short: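 Luminescent reporter readout, HEK293T ATAD5-luc line: 16 hr drug exposure (37C, 5% CO2) followed by Amplite, 30 min RT.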
# [3] = qHTS assay for identifying genotoxic compounds that show differential cytotoxicity against isogenic chicken DT40 cell lines with known DNA damage response pathways - Rev3 mutant cell line (AID 743014); conditions: chicken DT40 Rev3-/- viability, CellTiter-Glo, 40 h; activity, negative = cytotoxicity: at 68.4 µM (top of the series) unless noted; also: potency is read from the fitted curve at half-maximal effect; nearly all actives have a fitted effect of over 55% in size
# [4] = qHTS assay for small molecule disruptors of the mitochondrial membrane potential (AID 720635); conditions: HepG2 mitochondrial membrane potential, Mito-MPS dye ratio; also: potency is read from the fitted curve at half-maximal effect; as to ratio activity, negative = MMP loss: % is scaled to controls: 0 for no effect and ±100 for the full control effect
# In short: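 Mitochondrial membrane potential tracked with Mito-MPS dye, red aggregates (ex 540/em 590 nm) against green monomers (ex 490/em 535 nm). Compound treatment 1 hr at 37C, dye 30 min in HepG2.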
# [5] = target: Glucocorticoid receptor (Homo sapiens) (UniProt P04150); experiment: qHTS assay to identify small molecule antagonists of the glucocorticoid receptor (GR) signaling pathway (AID 720692; active = well fitted inhibition curve with a large enough effect in the signal ratio in the repeat runs, not every such curve was filed as active; inconclusive = weak or mixed curves, or effect the other way; inactive = no such curve, though single readings can be large or run the other way; the % refers to the signal ratio; also: % is scaled to controls: 0 for no effect and ±100 for the full control effect); conditions: GR-bla HeLa, beta-lactamase FRET ratio, dexamethasone-stimulated, 18 h; activity change, negative = inhibition: at 58.5 µM (top of the series) unless noted
# Sequence of UniProt P04150 (P04150 whole entry, looked up): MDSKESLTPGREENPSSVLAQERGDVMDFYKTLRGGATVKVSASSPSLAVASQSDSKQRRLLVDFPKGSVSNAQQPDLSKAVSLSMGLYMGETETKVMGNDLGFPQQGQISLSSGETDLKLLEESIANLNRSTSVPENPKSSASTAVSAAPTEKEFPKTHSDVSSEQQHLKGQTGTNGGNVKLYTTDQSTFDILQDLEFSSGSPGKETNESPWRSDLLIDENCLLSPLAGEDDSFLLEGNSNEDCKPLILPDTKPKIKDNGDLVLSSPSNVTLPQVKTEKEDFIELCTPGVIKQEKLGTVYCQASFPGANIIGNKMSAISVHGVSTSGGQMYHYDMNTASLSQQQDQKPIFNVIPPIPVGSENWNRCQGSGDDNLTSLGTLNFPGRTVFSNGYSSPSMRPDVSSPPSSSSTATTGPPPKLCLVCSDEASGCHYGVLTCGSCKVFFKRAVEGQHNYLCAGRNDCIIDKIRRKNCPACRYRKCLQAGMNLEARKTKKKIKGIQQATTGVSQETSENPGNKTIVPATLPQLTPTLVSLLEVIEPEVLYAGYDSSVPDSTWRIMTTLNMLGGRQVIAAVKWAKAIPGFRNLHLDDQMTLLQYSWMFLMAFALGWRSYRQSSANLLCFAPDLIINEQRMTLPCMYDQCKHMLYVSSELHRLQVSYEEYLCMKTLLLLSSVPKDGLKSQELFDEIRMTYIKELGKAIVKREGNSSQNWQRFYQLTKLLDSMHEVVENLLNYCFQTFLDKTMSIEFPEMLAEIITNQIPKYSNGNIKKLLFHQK
# In short: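 Inhibition of glucocorticoid signalling is measured in HeLa cells with a GRE-controlled beta-lactamase reporter; cells are co-treated with compound and 5 nM dexamethasone (final) for 18 h before FRET substrate readout.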
# [6] = target: Glucocorticoid receptor (Homo sapiens) (UniProt P04150); experiment: qHTS assay to identify small molecule agonists of the glucocorticoid receptor (GR) signaling pathway (AID 720691; active = well fitted activation curve with a large enough effect in the signal ratio in the repeat runs, not every such curve was filed as active; inconclusive = weak or mixed curves, or effect the other way; inactive = no such curve, though single readings can be large or run the other way; the % refers to the signal ratio; also: % is scaled to controls: 0 for no effect and ±100 for the full control effect); conditions: GR-bla HeLa, beta-lactamase reporter ratio, 18 h; activation: at 62.4 µM (top of the series) unless noted
# In short: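 qHTS in GR-bla HeLa cells: 4 h settling at 37 C/5% CO2, 18 h compound incubation at 37 C, 2 h LiveBLAzer B/G FRET substrate at room temperature, fluorescence intensity measured.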
# [7] = qHTS assay for identifying genotoxic compounds that show differential cytotoxicity against isogenic chicken DT40 cell lines with known DNA damage response pathways - wild type cell line (AID 743012); conditions: DT40 wild type chicken cells viability, CellTiter-Glo, 40 h; activity change, negative = cytotoxicity: at 68.4 µM (top of the series) unless noted; also: potency is read from the fitted curve at half-maximal effect; nearly all actives have a fitted effect of over 60% in size
# In short: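 First, wild type DT40 cells were plated at 300 per well and equilibrated about 0.5 h at 37 C/5% CO2. Next, compounds in DMSO were added and exposure lasted 40 h. Finally, CellTiter-Glo was added for 30 min at room temperature and luminescence recorded.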
# Tags tell the direction and shape of the fitted curve or compound fluorescence and quenching.
smiles,measurement,setting,value
CCCCCCn1cc[n+](C)c1,Potency,[1],"inconclusive: 22 µM [cytotoxic, partial curve, poor fit] and inconclusive: 21.3 µM [cytotoxic, partial curve, poor fit]"
Clc1ccccc1-c1nnc(-c2ccccc2Cl)nn1,Potency,[2],"active: 30.4 µM and inconclusive: 54.3 µM [activator, partial curve, poor fit]"
same,Potency,[3],"inconclusive: 0.861 µM [cytotoxic, full curve, poor fit]"
Nc1ccc(-c2ccc(N)cc2)cc1,Potency,[2],inconclusive: 60.4 µM [activator]
same,Potency,"[4]; ratio activity, negative = MMP loss: at 83.2 µM (top of the series) unless noted","inconclusive: 24.1 µM [inhibitor, partial curve] and inconclusive: 30.4 µM [inhibitor, partial curve, poor fit] and inconclusive: 15.4 µM [inhibitor]"
same,Potency,[5],inactive
CN1C(=O)C(O)N=C(c2ccccc2)c2cc(Cl)ccc21 (stereo not given),Potency,[2],"inconclusive: 26.6 µM [activator, partial curve, poor fit]"
same,"ratio activity, negative = MMP loss",[4]; at 83.2 µM (top of the series),inconclusive: 40.5%
same,"ratio activity, negative = MMP loss",[4]; at 95.3 µM (top of the series),inconclusive: 16.6%
CC(Oc1ccc(Cl)cc1Cl)C(=O)O (stereo not given),Potency,[2],inactive
same,activation,[6],inconclusive: -1.15% [phenotype inactive]
same,"activity change, negative = inhibition",[5],inconclusive: 0.496%
same,Potency,[3],"inconclusive: 77.2 µM [cytotoxic, partial curve, poor fit]"
O.O.O.O=C([O-])[C@H]([O-])[C@@H]([O-])C(=O)[O-].O=C([O-])[C@H]([O-])[C@@H]([O-])C(=O)[O-].[K+].[K+].[Sb+3].[Sb+3],Potency,[2],"inconclusive: 68.9 µM [activator, single point]"
same,Potency,[7],"inconclusive: 6.89 µM [rising, partial curve, poor fit]"
